Reference: the supplement of paper PMC11417369
The other results are listed elsewhere or left out.

System: PfSIP2 AP2 domain 1 (GST-tagged)
Assay: gcPBM binding intensity (ln(normalized median fluorescence intensity)); higher = stronger DNA binding
Method in brief: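 Each value is the highest Masliner-normalised natural-log median intensity across replicate spots of either orientation of a probe. The probes were primer-extended double-stranded 36-bp intergenic genomic sequences on an Agilent 4 × 180k array, alongside negative controls, exposed for 1 h to GST-tagged P. falciparum DNA-binding domains expressed in E. coli. Bound protein was picked up with Alexa488 anti-GST antibody and scanned at 488 nm.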

Row | Sequence | gcPBM binding intensity (ln)
1 | CTTTTTTTTTTTTTTGCACACACATATATAAATATA [CACACA_site3950] | 7.63
2 | ATATTTTTTATAAAATGTACTTATTATTAGAATATA [XGTACX_site2460] | 6.89
3 | ACATATAAGTTATATACACACAATAATATGTAAATA [CACACA_site6766] | 7.07
4 | TACAAAATATGGTAATAAAGTAGTTACATGAATTGG [XGTACX_negctrl_site522] | 6.91
5 | AAATAGTCTTCTCTTGCATGTAACAAATATATATAT [TGCATGCA_site428] | 8.35
6 | TAGTAAGAATTACTGTGTACTAAAATATTAAAAAGT [XGTACX_site2578] | 7.12
7 | AATAAAAACAAACAAAAAAACAAATAAATAAATAAA [CACACA_negctrl_site483] | 6.75
8 | GTTATAGAAGCATTCACACACACACGGACATACACA [CACACA_site6801] | 7.23
9 | TTTTTTTATAAAAATGAACACACACCGATATATATA [CACACA_site9161] | 7.57
10 | AATATATACATATGTATGCACTTTTTAATTATTTTT | 7.76
11 | TATTATAATATATTTGTGCACATAATACCTCCGCTA [GTGCAC_site9570] | 9.16
12 | GTTATAGAAGCATTCACACACACACCGACATACACA [CACACA_site4914] | 7.27
13 | ATAAATTATATTCAAGTGCATGTAACTTATTATTAT | 7.5
14 | AATAATTAAATATATTTATAACAGGAAAATATTTAT [XGTACX_negctrl_site175] | 7.05
15 | ATATATATATAAATATAAATATATATATATATATAT [CACACA_negctrl_site1685] | 9.35
16 | AAAAAAATCACATAATATACTTTATTTTATTTTGTA [GTGCAC_negctrl_site562] | 6.72
17 | ACAAAGAACTATAATACACACAAGAATATATTGGAT [CACACA_site7771] | 7.06
18 | TTATAAGATTTATGTACACACATATACACCCCTCTA [CACACA_site4562] | 6.97
19 | TATATATAGAAACACACACACACATATATATATATT [CACACA_site2539] | 7.22
20 | AATATATTGCACCATTGGACCTGAATAATTCTTCCA [CACACA_negctrl_site1071] | 10.6
21 | GTAAGAAACGGACACACACACATATATATATATATA [CACACA_site4593] | 9.14
22 | TAAATAATCATAGTTCTACACACCTATATTGCAAAA [CACACA_site8190] | 6.87

Row | Sequence | gcPBM binding intensity (ln)
23 | AAAAAAAAAAATTCCAGTACACACAATAATACTAAA [XGTACX_site5930] | 6.88
24 | ATATATATAATATGATGTACTATTTTGATAAAAAAT [XGTACX_site3975] | 7.62
25 | TGTGGCCCTGCGAGGTGGTCATCATGAATACGAAAA [XGTACX_site1526] | 6.67
26 | TCAAAAATTTATATAGTGCAATATATATATAATGTA | 7.9
27 | TTAAAAAATATATGCGTGCACTAATATTTCATATGC | 9.93
28 | TGAATTAACAAATAGACACACATATATATATATATA [CACACA_site3195] | 9.38
29 | ACCATTTGTACTTACGCACACATAAAATATATATAT [CACACA_site1545] | 8.49
30 | TACTATTTTTATAATACACACATATATTTGTGATAT [CACACA_site1775] | 7.01
31 | TCATACATTTTCCTTGCACACATTTATAATTAATGT [CACACA_site614] | 7.49
32 | TTGTAATATATAAAAGTGCATATATGGTTCCATATA [GTGCAC_site9544] | 7.89
33 | TAATTTATTGTACGTGCATGCTATTTTTTATTTTTA [TGCATGCA_site1059] | 7.08
34 | ATATGTGAATAAAAATGTACGTGTTCTTTTTTTTTT [XGTACX_site320] | 6.88
35 | AACAAAAAAACAAACACACACACACCCATATATATA [CACACA_site3652] | 7.79
36 | TACCTATAAAAGTACACACACACACGGATATAAATA [CACACA_site6569] | 7.22
37 | ACTATAAATATATACACATGCGCACACACAAGTGGG [TGCATGCA_site432] | 7.45
38 | ATTGATCTTTATTGTTGTACATTAAACGTTAATTTT [XGTACX_site1788] | 7.13
39 | TATTATATAATTTTAACACACAAGAATATAAACTTT [CACACA_site1363] | 6.83
40 | TAACAAAATGTAAATAAACACACATATATATATATA [CACACA_site8352] | 9.42
41 | AACATTCTATGTTGCACACAAAGAGAAAAATTTATT [CACACA_site3995] | 6.99
42 | TAATTTAAATGATGTAGTACATATAAATATATCTAA [XGTACX_site262] | 6.8
43 | TGAAGGAATACAGCTCGTACATGTGTAAAGAGATAA [XGTACX_site500] | 7.09
44 | AAAAAGAAAAAACTTACACACATATATACCCCCATG [CACACA_site4463] | 8.04
